For three molecules, binding results are on record in article PMC6634424.

No constants are given. Whether binding was seen depends on the method and setting. Some results given as binding are weak or reduced against the parent protein; the word gives no strength.

Test [1] addresses T1, ZAR1^wt (Arabidopsis thaliana) (UniProt Q38834).
T1 sequence: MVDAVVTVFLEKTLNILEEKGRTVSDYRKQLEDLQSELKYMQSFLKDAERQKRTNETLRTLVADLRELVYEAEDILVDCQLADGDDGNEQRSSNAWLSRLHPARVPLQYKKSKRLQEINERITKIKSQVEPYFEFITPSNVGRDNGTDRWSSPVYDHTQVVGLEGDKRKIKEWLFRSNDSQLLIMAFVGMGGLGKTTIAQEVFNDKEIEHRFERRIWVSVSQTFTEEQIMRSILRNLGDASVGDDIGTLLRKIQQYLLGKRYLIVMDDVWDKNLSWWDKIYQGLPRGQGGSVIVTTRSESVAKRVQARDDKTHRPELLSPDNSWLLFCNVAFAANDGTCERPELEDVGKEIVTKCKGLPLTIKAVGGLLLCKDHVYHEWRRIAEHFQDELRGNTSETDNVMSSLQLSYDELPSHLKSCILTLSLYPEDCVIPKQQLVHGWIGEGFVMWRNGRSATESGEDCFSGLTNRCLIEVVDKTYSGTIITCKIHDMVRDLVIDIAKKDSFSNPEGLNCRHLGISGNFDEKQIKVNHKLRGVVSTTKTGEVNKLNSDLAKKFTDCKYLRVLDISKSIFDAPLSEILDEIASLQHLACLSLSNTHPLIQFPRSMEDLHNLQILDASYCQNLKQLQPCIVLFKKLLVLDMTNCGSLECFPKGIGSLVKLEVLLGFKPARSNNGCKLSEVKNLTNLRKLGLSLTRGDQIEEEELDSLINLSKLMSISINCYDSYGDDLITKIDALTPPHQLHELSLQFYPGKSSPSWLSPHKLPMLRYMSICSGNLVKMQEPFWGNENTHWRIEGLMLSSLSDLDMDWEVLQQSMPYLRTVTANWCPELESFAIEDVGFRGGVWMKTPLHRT
In words: two-hybrid; Y4H: LexA-ZAR1 (full length or truncation) bait, 11 PBL preys, integrated ZED1^wt and integrated HopZ1a^wt.

In test [2] the target is T1, ZAR1^wt (Arabidopsis thaliana). The test can be described thus: two-hybrid; Y3H: LexA-ZAR1 (full length or truncation) bait, 11 PBL preys, integrated ZED1^‘DT’ (N173D V212T), no HopZ1a.
In test [3] the target is T2, ZED1^wt (Arabidopsis thaliana) (UniProt Q8LGB6).
T2 sequence: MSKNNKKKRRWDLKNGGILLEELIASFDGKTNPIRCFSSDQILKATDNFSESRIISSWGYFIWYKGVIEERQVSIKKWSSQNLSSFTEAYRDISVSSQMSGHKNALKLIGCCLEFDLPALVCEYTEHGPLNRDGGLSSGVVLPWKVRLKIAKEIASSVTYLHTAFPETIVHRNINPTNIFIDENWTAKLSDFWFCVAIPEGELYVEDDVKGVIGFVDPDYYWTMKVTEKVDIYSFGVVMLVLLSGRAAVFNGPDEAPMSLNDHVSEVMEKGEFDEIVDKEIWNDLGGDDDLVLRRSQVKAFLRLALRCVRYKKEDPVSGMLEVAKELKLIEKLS
In words: two-hybrid; Y2H: LexA-ZED1 (wt or mutant) bait, PBL (wt or mutant) preys, no effector; X-Gal reporter plates, 30°C.

B1: ZED1^wt, chromosomally integrated (protein, UniProt Q8LGB6 1-334)
chain: MSKNNKKKRRWDLKNGGILLEELIASFDGKTNPIRCFSSDQILKATDNFSESRIISSWGYFIWYKGVIEERQVSIKKWSSQNLSSFTEAYRDISVSSQMSGHKNALKLIGCCLEFDLPALVCEYTEHGPLNRDGGLSSGVVLPWKVRLKIAKEIASSVTYLHTAFPETIVHRNINPTNIFIDENWTAKLSDFWFCVAIPEGELYVEDDVKGVIGFVDPDYYWTMKVTEKVDIYSFGVVMLVLLSGRAAVFNGPDEAPMSLNDHVSEVMEKGEFDEIVDKEIWNDLGGDDDLVLRRSQVKAFLRLALRCVRYKKEDPVSGMLEVAKELKLIEKLS
B1: the binding result in test [1] is “binds”.

B2: ZED1^‘DT’, chromosomally integrated (protein, UniProt Q8LGB6 1-334)
chain: MSKNNKKKRRWDLKNGGILLEELIASFDGKTNPIRCFSSDQILKATDNFSESRIISSWGYFIWYKGVIEERQVSIKKWSSQNLSSFTEAYRDISVSSQMSGHKNALKLIGCCLEFDLPALVCEYTEHGPLNRDGGLSSGVVLPWKVRLKIAKEIASSVTYLHTAFPETIVHRDINPTNIFIDENWTAKLSDFWFCVAIPEGELYVEDDVKGTIGFVDPDYYWTMKVTEKVDIYSFGVVMLVLLSGRAAVFNGPDEAPMSLNDHVSEVMEKGEFDEIVDKEIWNDLGGDDDLVLRRSQVKAFLRLALRCVRYKKEDPVSGMLEVAKELKLIEKLS
Consider B2, for which the binding entry in test [2] is on record as “binds”.

B3: PBL15^S260I (protein, UniProt Q9SY91 1-424)
chain: MRDSSTTASTKSSPLWKPFASNCCSVDDQTVFGNLSRCRPSRSEFSKNHLGPLPSFRRLSFADLSRSSSARINEDLAQTLGADLVDFQMCELKMITQSFSGNYLLGEGGFGKVYKGYVDDYLRQSLKAQPVAVKLLDIEGLQGHREWLSEVIFLGQLKHPNLVKLIGYCCEEEERVLIYEFMPRGSLENHLFRRISLSLPWATRLKIAVAAAKGLAFLHDLESPIIYRDFKTSNILLDSDFTAKLSDFGLAKMGPEGSKIHVTTRVMGTYGYAAPEYVSTGHLTTKSDVYSYGVVLLELLTGRRATEKSRPKNQQNIIDWSKPYLTSSRRLRCVMDPRLAGQYSVKAAKDTALLALQCVSPNPKDRPKMLAVVEALESLIHYKDMAVSSGHWPLSPKSQGGKVSPKVRGDHRSGRKSAPGSLRS
On to B3, for which, in test [3], the binding result is recorded as “binds”.
